# Data from PMC12820563.
# Some of the results follow. The list includes weakly bound sequences.
# Molecular target: T1, MBP-FoxP3dN (UniProt Q99JB6)
# T1 sequence: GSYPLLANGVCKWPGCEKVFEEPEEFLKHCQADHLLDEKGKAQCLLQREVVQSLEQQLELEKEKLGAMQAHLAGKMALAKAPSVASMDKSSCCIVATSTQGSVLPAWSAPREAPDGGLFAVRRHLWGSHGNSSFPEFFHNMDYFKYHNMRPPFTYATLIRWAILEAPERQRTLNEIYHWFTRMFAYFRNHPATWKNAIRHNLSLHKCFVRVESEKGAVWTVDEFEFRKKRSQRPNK
# Assay: PD-seq (MBP pull-down with sequencing)
# Settings: 20 mM Tris-HCl pH 7.5, 100 mM NaCl, 1.5 mM MgCl2, 0.4 uM protein, 0.1 uM dsDNA library, 30 min, room temperature, amylose pull-down; high values mean tight binding; double strand, one strand shown
row,Sequence,binding signal (RPM ratio (pull-down/input))
1,GATGATTGTTCTCCCAGCTGATGAATTCAGCAGGTCGAGTAAACAAATTTTCCTAATCTTTCTGTTCAAGCGCCATCTAC,0.471
2,GATGATTGTTCTCCCAGCTGATGAATTCCGGTCGTCGAGTAAACAAATTTTCCTAATCTTTCTGTTCAAGCGCCATCTAC,0.394
3,GATGATTGTTCTCCCAGCTGATGAATTCAGTCCCTCGAGTAAACAAATTTTCCTAATCTTTCTGTTCAAGCGCCATCTAC,0.438
4,GATGATTGTTCTCCCAGCTGATGAATTCTTCACCTCGAGTAAACAAATTTTCCTAATCTTTCTGTTCAAGCGCCATCTAC,0.246
5,GATGATTGTTCTCCCAGCTGATGAATTGGAATCGTCGAGTAAACAAATTTTCCTAATCTTTCTGTTCAAGCGCCATCTAC,0.354
6,GATGATTGTTCTCCCAGCTGATGAATTAGTTGCTTCGAGTAAACAAATTTTCCTAATCTTTCTGTTCAAGCGCCATCTAC,3.43
7,GATGATTGTTCTCCCAGCTGATGAATTTAAATTTTCGAGTAAACAAATTTTCCTAATCTTTCTGTTCAAGCGCCATCTAC,0.292
8,GATGATTGTTCTCCCAGCTGATGAATTCACCGATTCGAGTAAACAAATTTTCCTAATCTTTCTGTTCAAGCGCCATCTAC,0.28
9,GATGATTGTTCTCCCAGCTGATGAATTAAAGAGCTCGAGTAAACAAATTTTCCTAATCTTTCTGTTCAAGCGCCATCTAC,0.206
10,GATGATTGTTCTCCCAGCTGATGAATTGACGTCTTCGAGTAAACAAATTTTCCTAATCTTTCTGTTCAAGCGCCATCTAC,0.448
11,GATGATTGTTCTCCCAGCTGATGAATTATGCTAATCGAGTAAACAAATTTTCCTAATCTTTCTGTTCAAGCGCCATCTAC,0.83
12,GATGATTGTTCTCCCAGCTGATGAATTCGACTATTCGAGTAAACAAATTTTCCTAATCTTTCTGTTCAAGCGCCATCTAC,0.481
13,GATGATTGTTCTCCCAGCTGATGAATTCTTCGGGTCGAGTAAACAAATTTTCCTAATCTTTCTGTTCAAGCGCCATCTAC,0.219
14,GATGATTGTTCTCCCAGCTGATGAATTGTATATGTCGAGTAAACAAATTTTCCTAATCTTTCTGTTCAAGCGCCATCTAC,3.17
15,GATGATTGTTCTCCCAGCTGATGAATTGGCATATTCGAGTAAACAAATTTTCCTAATCTTTCTGTTCAAGCGCCATCTAC,0.904
16,GATGATTGTTCTCCCAGCTGATGAATTTGATTAGTCGAGTAAACAAATTTTCCTAATCTTTCTGTTCAAGCGCCATCTAC,3.8
17,GATGATTGTTCTCCCAGCTGATGAATTCCCGGATTCGAGTAAACAAATTTTCCTAATCTTTCTGTTCAAGCGCCATCTAC,0.183
18,GATGATTGTTCTCCCAGCTGATGAATTAAGTACTTCGAGTAAACAAATTTTCCTAATCTTTCTGTTCAAGCGCCATCTAC,0.487
19,GATGATTGTTCTCCCAGCTGATGAATTATTAGCATCGAGTAAACAAATTTTCCTAATCTTTCTGTTCAAGCGCCATCTAC,1.46
20,GATGATTGTTCTCCCAGCTGATGAATTTGGTCAATCGAGTAAACAAATTTTCCTAATCTTTCTGTTCAAGCGCCATCTAC,0.298
21,GATGATTGTTCTCCCAGCTGATGAATTGGAAACGTCGAGTAAACAAATTTTCCTAATCTTTCTGTTCAAGCGCCATCTAC,0.241

row,Sequence,binding signal (RPM ratio (pull-down/input))
1,GATGATTGTTCTCCCAGCTGATGAATTCAAATCATCGAGTAAACAAATTTTCCTAATCTTTCTGTTCAAGCGCCATCTAC,0.446
2,GATGATTGTTCTCCCAGCTGATGAATTTTACCCTTCGAGTAAACAAATTTTCCTAATCTTTCTGTTCAAGCGCCATCTAC,0.241
3,GATGATTGTTCTCCCAGCTGATGAATTTCGTTCCTCGAGTAAACAAATTTTCCTAATCTTTCTGTTCAAGCGCCATCTAC,0.644
4,GATGATTGTTCTCCCAGCTGATGAATTCATACCCTCGAGTAAACAAATTTTCCTAATCTTTCTGTTCAAGCGCCATCTAC,0.328
5,GATGATTGTTCTCCCAGCTGATGAATTGGGATCTTCGAGTAAACAAATTTTCCTAATCTTTCTGTTCAAGCGCCATCTAC,0.32
6,GATGATTGTTCTCCCAGCTGATGAATTCACCGGATCGAGTAAACAAATTTTCCTAATCTTTCTGTTCAAGCGCCATCTAC,0.193
7,GATGATTGTTCTCCCAGCTGATGAATTCACTTAATCGAGTAAACAAATTTTCCTAATCTTTCTGTTCAAGCGCCATCTAC,0.236
8,GATGATTGTTCTCCCAGCTGATGAATTGGGAGGATCGAGTAAACAAATTTTCCTAATCTTTCTGTTCAAGCGCCATCTAC,0.231
9,GATGATTGTTCTCCCAGCTGATGAATTTAACTTCTCGAGTAAACAAATTTTCCTAATCTTTCTGTTCAAGCGCCATCTAC,0.373
10,GATGATTGTTCTCCCAGCTGATGAATTAGGCCCGTCGAGTAAACAAATTTTCCTAATCTTTCTGTTCAAGCGCCATCTAC,1.25
11,GATGATTGTTCTCCCAGCTGATGAATTGAACTCGTCGAGTAAACAAATTTTCCTAATCTTTCTGTTCAAGCGCCATCTAC,0.287
12,GATGATTGTTCTCCCAGCTGATGAATTTACGTATTCGAGTAAACAAATTTTCCTAATCTTTCTGTTCAAGCGCCATCTAC,1.36
13,GATGATTGTTCTCCCAGCTGATGAATTATTAGGCTCGAGTAAACAAATTTTCCTAATCTTTCTGTTCAAGCGCCATCTAC,0.398
14,GATGATTGTTCTCCCAGCTGATGAATTGTGCAACTCGAGTAAACAAATTTTCCTAATCTTTCTGTTCAAGCGCCATCTAC,6.92
15,GATGATTGTTCTCCCAGCTGATGAATTGACCTTGTCGAGTAAACAAATTTTCCTAATCTTTCTGTTCAAGCGCCATCTAC,0.267
16,GATGATTGTTCTCCCAGCTGATGAATTAGTCCTCTCGAGTAAACAAATTTTCCTAATCTTTCTGTTCAAGCGCCATCTAC,0.663
17,GATGATTGTTCTCCCAGCTGATGAATTGGATGCCTCGAGTAAACAAATTTTCCTAATCTTTCTGTTCAAGCGCCATCTAC,1.54
18,GATGATTGTTCTCCCAGCTGATGAATTTTCGAGCTCGAGTAAACAAATTTTCCTAATCTTTCTGTTCAAGCGCCATCTAC,0.208
19,GATGATTGTTCTCCCAGCTGATGAATTACGTGGTTCGAGTAAACAAATTTTCCTAATCTTTCTGTTCAAGCGCCATCTAC,0.913
20,GATGATTGTTCTCCCAGCTGATGAATTGTCTACATCGAGTAAACAAATTTTCCTAATCTTTCTGTTCAAGCGCCATCTAC,1.49
21,GATGATTGTTCTCCCAGCTGATGAATTCGTCGTTTCGAGTAAACAAATTTTCCTAATCTTTCTGTTCAAGCGCCATCTAC,1.41

row,Sequence,binding signal (RPM ratio (pull-down/input))
1,GATGATTGTTCTCCCAGCTGATGAATTCCAGATATCGAGTAAACAAATTTTCCTAATCTTTCTGTTCAAGCGCCATCTAC,0.282
2,GATGATTGTTCTCCCAGCTGATGAATTTTCGTGTTCGAGTAAACAAATTTTCCTAATCTTTCTGTTCAAGCGCCATCTAC,0.61
3,GATGATTGTTCTCCCAGCTGATGAATTAACGTGGTCGAGTAAACAAATTTTCCTAATCTTTCTGTTCAAGCGCCATCTAC,0.354
4,GATGATTGTTCTCCCAGCTGATGAATTACAAGGGTCGAGTAAACAAATTTTCCTAATCTTTCTGTTCAAGCGCCATCTAC,0.338
5,GATGATTGTTCTCCCAGCTGATGAATTCCCCTCCTCGAGTAAACAAATTTTCCTAATCTTTCTGTTCAAGCGCCATCTAC,0.25
6,GATGATTGTTCTCCCAGCTGATGAATTAGCAGGCTCGAGTAAACAAATTTTCCTAATCTTTCTGTTCAAGCGCCATCTAC,0.407
7,GATGATTGTTCTCCCAGCTGATGAATTCTACCCGTCGAGTAAACAAATTTTCCTAATCTTTCTGTTCAAGCGCCATCTAC,0.246
8,GATGATTGTTCTCCCAGCTGATGAATTAATATCGTCGAGTAAACAAATTTTCCTAATCTTTCTGTTCAAGCGCCATCTAC,0.654
9,GATGATTGTTCTCCCAGCTGATGAATTACTACGATCGAGTAAACAAATTTTCCTAATCTTTCTGTTCAAGCGCCATCTAC,0.338
10,GATGATTGTTCTCCCAGCTGATGAATTTACAGCGTCGAGTAAACAAATTTTCCTAATCTTTCTGTTCAAGCGCCATCTAC,0.607
11,GATGATTGTTCTCCCAGCTGATGAATTTGCAAGATCGAGTAAACAAATTTTCCTAATCTTTCTGTTCAAGCGCCATCTAC,0.415
12,GATGATTGTTCTCCCAGCTGATGAATTGTTTTTGTCGAGTAAACAAATTTTCCTAATCTTTCTGTTCAAGCGCCATCTAC,4.16
13,GATGATTGTTCTCCCAGCTGATGAATTGGTATAATCGAGTAAACAAATTTTCCTAATCTTTCTGTTCAAGCGCCATCTAC,0.914
14,GATGATTGTTCTCCCAGCTGATGAATTCTGACCATCGAGTAAACAAATTTTCCTAATCTTTCTGTTCAAGCGCCATCTAC,0.422
15,GATGATTGTTCTCCCAGCTGATGAATTTGACATATCGAGTAAACAAATTTTCCTAATCTTTCTGTTCAAGCGCCATCTAC,1.03
16,GATGATTGTTCTCCCAGCTGATGAATTCCGGTGGTCGAGTAAACAAATTTTCCTAATCTTTCTGTTCAAGCGCCATCTAC,0.395
17,GATGATTGTTCTCCCAGCTGATGAATTACTCGGATCGAGTAAACAAATTTTCCTAATCTTTCTGTTCAAGCGCCATCTAC,0.243
18,GATGATTGTTCTCCCAGCTGATGAATTTCCTTACTCGAGTAAACAAATTTTCCTAATCTTTCTGTTCAAGCGCCATCTAC,0.311
19,GATGATTGTTCTCCCAGCTGATGAATTCCTCGACTCGAGTAAACAAATTTTCCTAATCTTTCTGTTCAAGCGCCATCTAC,0.213
20,GATGATTGTTCTCCCAGCTGATGAATTTCTAAACTCGAGTAAACAAATTTTCCTAATCTTTCTGTTCAAGCGCCATCTAC,0.302
21,GATGATTGTTCTCCCAGCTGATGAATTCCATGAGTCGAGTAAACAAATTTTCCTAATCTTTCTGTTCAAGCGCCATCTAC,0.445
